Laboratory results published in PubChem BioAssay AID1347417 (National Center for Advancing Translational Sciences (NCATS), 2020).
Among all 120,000 compounds or so, about 5,300 (4.4%) were called active. This list was built around the results that the source calls inconclusive (neither active nor inactive); the mix of calls is not that of the screen. Calls follow the shape of the dose curve; as a rule, active = well fitted inhibition curve with a large enough effect; inconclusive = small, poorly fitted or top-dose-only effect; inactive = no such curve, though single readings can be large or run the other way. Where the call is inconclusive, the potency comes from a doubtful curve fit.

assay: qHTS Primary assay for Inhibitors of Plasmodium falciparum Dd2 growth in vitro; also: nearly all actives have a fitted effect of over 65% in size;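 as to activity, negative = inhibition: plate controls were DMSO vehicle for no effect and reference drug for full effect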; settings: P. falciparum Dd2 growth, SYBR Green, 72 h; activity, negative = inhibition: at 28.9 µM (top of the series) unless noted; series mostly up to 28.9 µM
In short: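 Infected erythrocytes (Dd2, 0.3% parasitemia, 2.5% hematocrit final) are added to compound in RPMI-1640/Albumax II medium, grown 72 h at 37C in low oxygen, then lysed with saponin/Triton-X containing SYBR Green and read by fluorescence.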
Potency is read from the fitted curve at half-maximal effect; tags tell the direction and shape of the fitted curve.

| Structure (SMILES) | Potency | activity, negative = inhibition |
| --- | --- | --- |
| CC1=C[C@@H](CNS(C)(=O)=O)[C@H](C(C)C)C[C@H]1Cc1nnc(-c2ccccc2F)o1 | inconclusive: 0.562 µM [inhibitor, full curve, poor fit] |  |
| COc1ccc(NC(=O)c2ccc3c(c2)N(C)C2CCCCN2C3=O)cc1 (stereo unspecified) | inconclusive: 0.0708 µM [inhibitor, full curve, poor fit] |  |
| COc1ccc(CCNC(=O)c2ccc3c(c2)N=C(C)c2cc(C)ccc2S3)cc1OC | active: 11.2 µM |  |
| Cc1ccccc1NC(=O)CN1C(=O)C(c2ccccc2)=NC12CCCCCC2 | inactive |  |
| Cc1ncsc1C(=O)N1CC(COc2ccccc2)C2(C1)CN(c1ccccc1)C2 (stereo unspecified) | inactive |  |
| Cc1ccc(-c2cc3c(ccn3C(C)C)c(C(=O)NCc3c(C)cc(C)[nH]c3=O)n2)cn1 | active: 7.08 µM |  |
| O=C(NCC(c1ccc2c(c1)OCO2)N1CCOCC1)c1ccccc1F (stereo unspecified) |  | inconclusive: -123% [inhibitor] [at 0.594 µM] |
| CCc1ccc2occ(CC(=O)Nc3c(C(=O)Nc4ccc(OC)cc4)oc4ccccc34)c2c1 | inconclusive: 10 µM [inhibitor, single point] |  |
| CCCC(C)N1CC2(CCN(C(=O)Cn3nc(C)cc3C)CC2)OC1=O (stereo unspecified) | inconclusive: 0.224 µM [inhibitor, full curve, poor fit] |  |
| Cc1cccc(C)c1NC(=O)CN1C(=O)NC2(CCC(C(C)(C)C)CC2)C1=O (stereo unspecified) | inconclusive: 15.8 µM [inhibitor, single point] |  |
| O=C1N(CCC2CCOC2)c2ccccc2NC12CCNCC2 (stereo unspecified) | inconclusive: 10 µM [inhibitor, partial curve, poor fit] |  |
| COc1ccccc1NC(=O)CSc1ccc(-c2sc(C)nc2C)nn1 | inconclusive: 15.8 µM [inhibitor, single point] |  |
| CCC(Nc1ccc(-c2nc(-c3ccco3)no2)cc1[N+](=O)[O-])c1ccccc1 (stereo unspecified) | active: 10 µM |  |
| O=C1CCN(S(=O)(=O)c2ccccc2)CCCN(C2CCCCC2)CCN1 | inconclusive: 6.31 µM [inhibitor, partial curve, poor fit] |  |
| O=C1CCCCC(C(=O)N2CCc3ccccc32)N1 (stereo unspecified) | inactive |  |
| C#CCNC(=O)[C@@H]1Cc2cn(CC3CC3)c3cccc(c23)[C@H](CC(C)C)N1 | inconclusive: 5.62 µM [inhibitor, single point] |  |
| CC1CCC(NC(=O)C2(c3ccc(NS(C)(=O)=O)cc3)CCCCC2)CC1 (stereo unspecified) | inactive |  |
| Cc1ccc(NC(=O)CSc2nc3ccc(NC(=O)c4cccs4)cc3s2)c(C)c1 | inconclusive: 8.91 µM [inhibitor, partial curve, poor fit] |  |
| COc1cccc(Cn2c(=O)n(-c3cccc(Cl)c3C)c(=O)c3c4c(sc32)CN(C(C)=O)CC4)c1 | inconclusive: 17.8 µM [inhibitor, single point] |  |
| CCN1CC(CNc2nccc(-c3c(C)nn(C)c3C)n2)CC1=O (stereo unspecified) | inactive |  |
| Cc1noc(C)c1CC(=O)N1CCCn2cc(-c3ccccc3)nc21 | inconclusive: 12.6 µM [inhibitor, single point] |  |
| O=C1c2c(nc(CN3CCCC(CO)C3)n2Cc2ccccc2)NCCN1CCOc1ccccc1 (stereo unspecified) | inactive |  |

| Structure (SMILES) | Potency | activity, negative = inhibition |
| --- | --- | --- |
| CCOc1ccc(CCNC(=O)C2CCN(C(=O)N3CC(CC)Oc4ccc(C)cc43)CC2)cc1 (stereo unspecified) | inconclusive: 7.94 µM [inhibitor, partial curve, poor fit] |  |
| Cc1cnccc1-c1ccc(NC(=O)NC2CC2)cc1 | inconclusive: 17.8 µM [inhibitor, single point] |  |
| CCCSCCCNC(=O)C1CCN(C(=O)c2cc3sccc3n2C)CC1 | active: 14.1 µM |  |
| Cc1ccccc1Cn1c(CCCNC(=O)C2CCCCC2)nc2ccccc21 | inactive |  |
| O=C(c1cccc(Cl)c1)N1CCC2(CC1)NC(=O)N(c1ccccc1Cl)N2 | inconclusive: 2.82 µM [inhibitor, full curve] |  |
| COc1ccc(S(=O)(=O)N(Cc2nc(-c3cccc(C)c3)no2)C2CCCCC2)cc1 | inconclusive: 10 µM [inhibitor, single point] |  |
| Cc1ccccc1Cn1c(SCc2ccc(C(=O)NCc3cccs3)cc2)nc2ccncc21 | active: 10 µM |  |
| Cc1noc(C)c1S(=O)(=O)N1CCCC(Cc2nncn2C(C)C)C1 (stereo unspecified) | inactive |  |
| Cn1c(Cn2ccnc2)nnc1C1CCCN(C(=O)c2sccc2N)C1 (stereo unspecified) | inactive |  |
| CCOc1ccccc1NC(=O)N1CC[C@H]2C(=O)NCCCCCCN(Cc3ccncc3)[C@@H]2C1 | inactive |  |
| C[S+](=O)([O-])c1cccc(NC(=O)c2nnn3c2CN(Cc2cccc(Cl)c2)C(=O)CC3)c1 | inconclusive: 7.94 µM [inhibitor, partial curve, poor fit] |  |
| CCOc1ccc(C(=O)c2cn(CC(=O)Nc3cc(OC)cc(OC)c3)c3ccc(F)cc3c2=O)cc1 | inconclusive: 10 µM [inhibitor, single point] |  |
| Cc1ccc(NC(=O)CSc2nc(-c3ccc(F)cc3)cc(C(F)(F)F)c2C#N)cc1 |  | inconclusive: -112% [inhibitor] [at 5.79 µM] |
| Cc1cccc(NC(=O)Cn2c(=O)n(Cc3ccc(C(=O)NCc4ccc5c(c4)OCO5)cc3)c(=O)c3ccccc32)c1 | active: 3.98 µM |  |
| c1ccc(CC2=NOC3(CCN(CC4CC4)CC3)C2)cc1 |  | inconclusive: -36.3% [inhibitor] [at 44.1 µM] |
| COc1ccc(-c2c(C#N)c(SCC(=O)Nc3ccccc3C)nc(C)c2C(=O)Nc2ccccc2)cc1OC | inconclusive: 11.2 µM [inhibitor, single point] |  |
| CN(C)c1cccc(C(=O)N2CCC3(CC2)NC(=O)N(Cc2ccc(F)cc2)C3=O)c1 | inactive |  |
| COCCCNC(=O)CSc1nc(-c2cccc(F)c2)[nH]c1-c1ccccc1 | inconclusive: 14.1 µM [inhibitor, partial curve, poor fit] |  |
| CCOc1ccccc1NC(=O)NC1CCN(C(=O)N2CC3CC(C2)[C@H]2CCCC(=O)N2C3)CC1 (stereo partly specified) | inactive |  |
| Cc1ccc(-c2ncc(NC(=O)c3ccc(Cl)s3)cn2)cc1 | inconclusive: 2.24 µM [inhibitor, partial curve, poor fit] |  |
| COc1ccc2c(c1)c(CN1C[C@@H](C(N)=O)[C@H](c3nc(C)no3)C1)cn2C(C)C | inconclusive: 10 µM [inhibitor, single point] |  |
| O=C(CCc1c[nH]c2ccccc12)Nc1ccc(-c2nnc3n2CCCC3)cc1 | inconclusive: 6.31 µM [inhibitor, partial curve, poor fit] |  |

| Structure (SMILES) | Potency | activity, negative = inhibition |
| --- | --- | --- |
| Cc1noc(C)c1-c1cc2cc(CN(C)C)oc2c(N2CCN(c3ccccn3)CC2)n1 | inactive |  |
| CCN(CCCNC(=O)c1cc2c(=O)[nH]c3ccccc3c2s1)c1ccccc1 | inconclusive: 6.31 µM [inhibitor, partial curve] |  |
| O=C(c1ccc2c(c1)OCO2)N1CCC(n2cc(-c3nc(-c4ccccc4)no3)nn2)C1 (stereo unspecified) | inconclusive: 3.98 µM [inhibitor, single point] |  |
| CCCCOc1ccc(C2c3c(-c4ccccc4O)n[nH]c3C(=O)N2Cc2ccncc2)cc1OC (stereo unspecified) | active: 7.08 µM |  |
| O=C(CC1CCc2ccccc21)N1CCCN(c2ncccn2)CC1 (stereo unspecified) | inactive |  |
| COc1ccccc1OCCCn1c(C2CC(=O)N(c3ccccc3Cl)C2)nc2ccccc21 (stereo unspecified) | inactive |  |
| CCC(=O)N(C1CCOCC1)C1CCN(S(=O)(=O)c2ccc(C(F)(F)F)cc2)CC1 | inconclusive: 3.55 µM [inhibitor, partial curve, poor fit] |  |
| N#Cc1ccc(CN2CCCC(c3nc(-c4cccnc4)no3)CCNC(=O)CC2)cc1 (stereo unspecified) | active: 3.98 µM |  |
| Cc1nc(-c2ccc(Cl)cc2)sc1CCNC(=O)c1ccco1 | inconclusive: 0.0631 µM [inhibitor, full curve, poor fit] |  |
| Cc1ccc(O)c(-c2ccnc3cc(-c4ccc(Cl)cc4)nn23)c1 | inconclusive: 1.41 µM [inhibitor, partial curve, poor fit] |  |
| COc1cc(-c2nc3sccn3c2Nc2cccc(C)c2)ccc1O | inconclusive: 10 µM [inhibitor, single point] |  |
| Cc1ccc(OCCC2CCN(C(=O)CC(F)(F)F)C2)cc1 (stereo unspecified) | inactive |  |
| CC(C)c1nccn1CCCNC(=O)c1ccc(N2CCCCCC2)nc1 | inconclusive: 20 µM [inhibitor, single point] |  |
| CCn1cc(CN(C)C(=O)c2ccc(N3CC4CC(C3)[C@H]3CCCC(=O)N3C4)nc2)c(C)n1 (stereo partly specified) | inactive |  |
| CCN(CC)c1ccc(C(=O)NCc2nnc3c(-c4nc(C(C)C)no4)cccn23)cc1 | inconclusive: 0.562 µM [inhibitor, full curve] |  |
| CCN(CCCNC(=O)c1nn(-c2ccc(C)cc2)c(=O)c2c1c1ccccc1n2C)c1ccccc1 | inconclusive: 11.2 µM [inhibitor, single point] |  |
| COc1ccc(C(=O)Nc2ccc(-c3cc4ccccc4oc3=O)c(C)c2)cc1Br | inconclusive: 4.47 µM [inhibitor, partial curve, poor fit] |  |
| CCOCCCNC(=O)CCc1nc(C2CCCN2C(=O)c2ccccc2)no1 (stereo unspecified) | inactive |  |
| O=C(c1ccc2c(c1)OCO2)N1CCc2nc(C3CC3)nc(-c3ccc(Cl)cc3)c2CC1 | inconclusive: 2.24 µM [inhibitor, partial curve, poor fit] |  |
| O=C1NCCN2CC3(CCN(C(=O)C4(c5ccccc5)CC4)CC3)CC12 (stereo unspecified) | inactive |  |
| Cc1ccc(-c2cccc(C(=O)N3CC[C@](C)(O)[C@H](C)C3)c2)o1 | inactive |  |
| COc1ccc(C2(C(=O)N3CCC(n4cc(-c5nc(C)no5)nn4)CC3)CC2)cc1 | active: 3.16 µM |  |
